From patent publication US20160137740A1 (AstraZeneca / MedImmune, published 2016)

Tests used:
Human OX40 [1] = target: T1, Human OX40 (human, UniProt P43489 29-277); assay: flow cytometry on activated primary human CD4+ T cells; 50% receptor occupancy calculated from Kd
T1 construct: also called CD134; TNFRSF4
T1 sequence: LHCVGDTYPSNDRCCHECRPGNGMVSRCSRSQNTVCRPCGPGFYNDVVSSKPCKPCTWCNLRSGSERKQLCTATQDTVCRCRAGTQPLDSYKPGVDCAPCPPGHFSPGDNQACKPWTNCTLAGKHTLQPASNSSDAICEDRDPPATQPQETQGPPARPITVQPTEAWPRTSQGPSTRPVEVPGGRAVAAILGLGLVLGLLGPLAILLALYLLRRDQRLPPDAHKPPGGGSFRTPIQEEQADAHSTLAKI
Procedure: (§1) OX40mAb24 (10 μg/mL) or 9B12 (10 μg/mL) was diluted over a 17 point 2-fold dilution series. OX40mAb24 was added to 100,000 cells (activated primary CD4⁺ T cells or human OX40-overexpressing Jurkat NFkB-luciferase clone 64 cells) per well and incubated for one hour at 4° C. For background binding subtraction, cells were incubated in the presence of secondary antibody alone. […] Following secondary antibody incubation, cells were washed and suspended in 100 μL FACS buffer for flow cytometry analysis on a BD LSRII flow cytometer as described below.

Human OX40 [2] = target: T1, Human OX40; assay: flow cytometry on human OX40-overexpressing Jurkat clone 64 cells; 50% receptor occupancy calculated from Kd
Procedure: (§2) Human OX40-overexpressing Jurkat NFκB-luciferase clone 64 cells were cultured in complete RPMI+10% FBS prior to binding experiments, without the need for activation.
as §1

Human OX40 [3] = target: T1, Human OX40; assay: cell-based or functional assay
Human OX40 [4] = target: T1, Human OX40; assay: cell-based or functional assay; remark: listed apart in the source
Human OX40 [5] = target: T1, Human OX40; assay: flow cytometry, equilibrium binding to human OX40-overexpressing Jurkat NFkB-luciferase clone 64 cells; mean of 3 experiments (StdErr)
Procedure: as §2, §1

Mouse OX40 = target: T2, Mouse OX40 (mouse, UniProt P47741 20-272); assay: flow cytometry, transfected 293F cells, column Mouse OX40 [FIGURE 32A con't]
T2 construct: also called mOX40; murine OX40
T2 sequence: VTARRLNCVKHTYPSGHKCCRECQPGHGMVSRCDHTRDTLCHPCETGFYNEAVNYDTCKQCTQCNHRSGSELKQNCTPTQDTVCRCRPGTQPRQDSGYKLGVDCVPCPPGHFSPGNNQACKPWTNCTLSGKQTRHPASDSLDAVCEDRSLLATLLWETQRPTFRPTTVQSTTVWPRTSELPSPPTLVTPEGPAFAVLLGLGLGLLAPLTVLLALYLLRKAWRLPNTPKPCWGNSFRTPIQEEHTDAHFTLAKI
Procedure: Forty-eight hours after transfection, HEK293F cells were incubated with 1 μg/mL of OX40mAb24 for 1 hour on ice in PBS. To detect bound OX40mAb24 by flow cytometry, the cells were washed 3-times with cold PBS, incubated with 1 μg/mL of Alexa480-conjugated anti-human IgG antibody for 1 hr on ice, and then analyzed using the LSRII flow cytometer.
The expression levels of all chimeric OX40 variants were also monitored by flow cytometry; the cells were incubated with a mixture of sheep anti-human OX40 and goat anti-mouse OX40 polyclonal antibodies at 1 μg/mL in PBS for 1 hour on ice. Cells were washed 3-times with cold PBS, and then incubated with a mixture of Alexa480-conjugated anti-goat and anti-sheep IgG polyclonal antibodies. After washing 3 times with cold PBS, cells were analyzed with the LSRII flow cytometer.

Human OX40 [6] = target: T1, Human OX40; assay: cell-based or functional assay; remark: listed apart in the source

B1: OX40mAb24 (antibody, human IgG1, kappa)
heavy: QVQLQESGPGLVKPSQTLSLTCAVYGGSFSSGYWNWIRKHPGKGLEYIGYISYNGITYHNPSLKSRITINRDTSKNQYSLQLNSVTPEDTAVYYCARYKYDYDGGHAMDYWGQGTLVTVSSASTKGPSVFPLAPSSKSTSGGTAALGCLVKDYFPEPVTVSWNSGALTSGVHTFPAVLQSSGLYSLSSVVTVPSSSLGTQTYICNVNHKPSNTKVDKRV[skipping human IgG1 Fc]
light: DIQMTQSPSSLSASVGDRVTITCRASQDISNYLNWYQQKPGKAPKLLIYYTSKLHSGVPSRFSGSGSGTDYTLTISSLQPEDFATYYCQQGSALPWTFGQGTKVEIKRTVAAPSVFIFPPSDEQLKSGTASVVCLLNNFYPREAKVQWKVDNALQSGNSQESVTEQDSKDSTYSLSSTLTLSKADYEKHKVYACEVTHQGLSSPVTKSFNRGEC
notes: Humanized from 9B12; human IgG1 kappa; also called humanized anti-human OX40 IgG1κ monoclonal antibody
Q: Which EC50 (Human OX40 [1]) does the source give for B1 here?
A: 312 pM

Q: And the EC50 (Human OX40 [2])?
A: 424 pM

Q: What about the “EC50, IL10 release, donor 367” value (Human OX40 [3]) of the same binder?
A: 59.5 pM

Q: What about the “EC50, IL10 release, donor 651” value (Human OX40 [3]) of the same binder?
A: 86.4 pM

Q: What about the “EC50, IL10 release, donor 661” value (Human OX40 [3]) of the same binder?
A: 89.5 pM

Q: And the “EC50, NK cell ADCC, exp 3, donor 363” value (Human OX40 [4])?
A: 2380 pM

Q: What about the “EC50, NK cell ADCC, exp 3, donor 504” value (Human OX40 [4]) of the same binder?
A: 1370 pM

Q: What about the “EC50, NK cell ADCC, exp 4, donor 464” value (Human OX40 [4]) of the same binder?
A: 3050 pM

Q: And the “EC50, NK cell ADCC, exp 4, donor 532” value (Human OX40 [4])?
A: 1310 pM

Q: And the “EC50, NK cell ADCC, exp 5, donor 601” value (Human OX40 [4])?
A: 501 pM

Q: What about the “EC50, NK cell ADCC, exp 5, donor 602” value (Human OX40 [4]) of the same binder?
A: 527 pM

Q: What about the Kd (Human OX40 [5]) of the same binder?
A: 424 pM

Q: Does B1 bind (Mouse OX40)?
A: no binding (tested: 1 µg/mL)

Q: What about the “EC50, CD4+ T cell proliferation, donor 367” value (Human OX40 [6]) of the same binder?
A: 38 pM

Q: And the “EC50, CD4+ T cell proliferation, donor 645” value (Human OX40 [6])?
A: 8.3 pM

Q: And the “EC50, CD4+ T cell proliferation, donor 651” value (Human OX40 [6])?
A: 16 pM

Q: And the “EC50, CD4+ T cell proliferation, donor 661” value (Human OX40 [6])?
A: 51 pM
